# About 2,200 (0.71%) of roughly 310,000 compounds showed an effect of 50% or more. Effects have a minus sign here. Some of the results follow.
# Molecular target: human ether-à-go-go-related gene (hERG) potassium channel (human, UniProt Q12809)
# Test: primary screen, population patch clamp on CHO cells stably expressing hERG
# Sequence of human ether-à-go-go-related gene (hERG) potassium channel (Q12809 whole entry, looked up): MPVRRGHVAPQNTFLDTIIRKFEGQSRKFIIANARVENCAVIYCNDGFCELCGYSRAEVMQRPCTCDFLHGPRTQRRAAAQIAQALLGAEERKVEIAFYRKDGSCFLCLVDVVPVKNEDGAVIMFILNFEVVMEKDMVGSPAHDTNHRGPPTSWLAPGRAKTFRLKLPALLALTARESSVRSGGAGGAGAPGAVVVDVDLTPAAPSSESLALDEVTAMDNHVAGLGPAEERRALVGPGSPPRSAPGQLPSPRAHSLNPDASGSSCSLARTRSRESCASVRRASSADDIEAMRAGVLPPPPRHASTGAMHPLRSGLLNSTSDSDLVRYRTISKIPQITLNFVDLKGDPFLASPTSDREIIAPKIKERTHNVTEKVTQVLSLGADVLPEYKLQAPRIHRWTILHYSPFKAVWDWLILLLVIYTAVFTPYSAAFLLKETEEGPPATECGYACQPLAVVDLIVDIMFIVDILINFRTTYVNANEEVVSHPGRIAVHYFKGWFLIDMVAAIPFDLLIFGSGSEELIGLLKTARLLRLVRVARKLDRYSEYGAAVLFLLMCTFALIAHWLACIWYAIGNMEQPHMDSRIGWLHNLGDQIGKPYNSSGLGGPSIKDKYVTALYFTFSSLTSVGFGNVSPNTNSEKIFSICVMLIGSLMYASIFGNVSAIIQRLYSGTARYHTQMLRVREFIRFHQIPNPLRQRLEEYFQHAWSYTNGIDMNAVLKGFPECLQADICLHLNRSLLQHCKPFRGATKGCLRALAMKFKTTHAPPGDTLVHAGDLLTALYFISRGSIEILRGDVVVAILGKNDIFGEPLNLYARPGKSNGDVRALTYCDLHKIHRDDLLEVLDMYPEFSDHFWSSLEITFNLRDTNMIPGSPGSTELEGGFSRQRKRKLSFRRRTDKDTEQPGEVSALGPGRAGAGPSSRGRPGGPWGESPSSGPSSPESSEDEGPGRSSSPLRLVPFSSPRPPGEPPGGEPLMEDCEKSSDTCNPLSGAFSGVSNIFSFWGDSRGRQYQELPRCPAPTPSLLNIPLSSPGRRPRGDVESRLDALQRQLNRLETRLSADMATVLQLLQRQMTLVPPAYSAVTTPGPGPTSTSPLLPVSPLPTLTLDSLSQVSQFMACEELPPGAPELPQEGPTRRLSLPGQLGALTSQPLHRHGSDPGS
row,SMILES,"hERG current change (%, negative = inhibition) at 1uM"
1,COC(=O)C1=C(c2ccc(C(C)=O)cc2)C[C@@H]2CC[C@H]1N2C(=O)N1CCC(C)CC1,15.2%
2,COc1ccc(-c2nn(Cc3ccccc3)cc2C(=O)N2CCN(c3ccccn3)CC2)cc1OC,-12.6%
3,O=C(COc1ccc(Cl)cc1)OCC(=O)N1CCCC1,7.62%
4,CCc1ccc(NC(=O)C2CCN(S(=O)(=O)c3c(C)[nH]c(=O)[nH]c3=O)CC2)cc1,-3.88%
5,O=C(CSc1ncnc2scc(-c3ccccc3)c12)NC1CCS(=O)(=O)C1 (centres unmarked),7.97%
6,CC(=O)Oc1ccc(C(=O)Nc2ccc3c(c2)C(=O)N(CCC(=O)O)C3=O)cc1,10.6%
7,CCCCCCSc1nnc2[nH]c(=O)cc(N)n12,12.3%
8,COc1ccc(/C=C/C(=O)c2ccc[nH]2)cc1OC,8.46%
9,Cc1cc(C)c2cc(CN(Cc3ccc4c(c3)OCO4)Cc3nnnn3Cc3ccco3)c(=O)[nH]c2c1,10.8%
10,Cc1cccc(OCc2nnc(SCc3cc(=O)n4cc(Br)ccc4n3)o2)c1,1.61%
11,Cl.O=C(NC12CC3CC(CC(C3)C1)C2)OCCNC1CCCCC1,15.6%
12,Cc1cc2oc(=O)c(CC(=O)O)c(C)c2c2occ(C(C)(C)C)c12,14.6%
13,CCN(c1ccccc1)S(=O)(=O)c1cccc(C(=O)NCC2(N(C)C)CCCCC2)c1,-11%
14,O=C(CSc1nc2nc(-c3cccs3)cc(C(F)(F)F)c2c(=O)[nH]1)Nc1ccc(F)c(F)c1,0.142%
15,COc1cccc(C(C(=O)NC2CCCC2)N(CC2CCCO2)C(=O)Cc2cccs2)c1 (centres unmarked),10.2%
16,CN(CC1CCCO1)S(=O)(=O)c1ccc(C(=O)N2CCN(c3ccccc3)CC2)cc1 (centres unmarked),5.16%
17,CN(C)c1ccc(-c2ccc3c(=O)c4ccccc4n(C)c3c2)cn1,5.09%
18,NS(=O)(=O)c1ccc(CCNc2nc(CN3CCCCC3)nc3sc4c(c23)CCC4)cc1,-53%
19,Cc1ccc(C(NC(=O)N2CCOCC2)=C(Cl)Cl)cc1F,-2.33%
20,CCc1ccc(NC(=O)NNC(=O)c2ccc3ccccc3c2O)cc1,15.2%
21,O=C(c1cccc(S(=O)(=O)N2CCN(c3ccccc3)CC2)c1)N1CCN(c2ccccc2O)CC1,-9.06%
22,O=C(Nc1cccc([N+](=O)[O-])c1)Nc1cccc([N+](=O)[O-])c1,11.8%

row,SMILES,"hERG current change (%, negative = inhibition) at 1uM"
1,CCN(CC)CCNC(=O)CS(=O)Cc1nc(-c2ccccc2Cl)oc1C (centres unmarked),0.188%
2,CCC1(c2ccc(F)cc2)NC(=O)N(CC(=O)N2CCOCC2)C1=O (centres unmarked),3.59%
3,O=C(NCC1CCCN(C2Cc3ccccc3C2)C1)c1cccs1 (centres unmarked),-13.9%
4,Cc1c2cnn(-c3ccccc3)c(=O)c2c(C)n1CCCC(=O)N1CCN(C)CC1,-11.5%
5,O=C(CCCSc1nnc(SCCCC(=O)c2ccc(F)cc2)s1)c1ccc(F)cc1,15.6%
6,CCc1ccc(NC(=O)CSc2nc(=O)n(CCCN3CCOCC3)c3c2CCCC3)cc1,-12.5%
7,COc1ccc(-n2c(=O)c(CCC(=O)N(C)Cc3cccs3)nc3ccccc32)cc1,6.29%
8,COc1cc(NC(=O)c2cc(-n3cnnc3)ccc2Cl)cc(OC)c1,9.49%
9,O=C(Nc1cc(Cl)ccc1N1CCOCC1)C1=COCCO1,2.9%
10,O=C(NCc1ccccc1)C1=C[C@H](c2csc3ccccc23)C[C@H](OCCCCO)O1,0.004%
11,COCCNC(=O)c1ccc2c(c1)S(=O)(=O)c1ccccc1C2=O,11.3%
12,N#C/C(=C\c1c(Cl)cccc1Cl)c1nc2ccccc2[nH]1,24.3%
13,Cc1cccc(C(=O)OCC(=O)N2CCCCCC2)c1,6.63%
14,CC1(C)OC(=O)N(Cc2ccco2)C1(C)O (centres unmarked),12.6%
15,COc1ccc(C(=O)NC(=S)NCC2CCCO2)cc1 (centres unmarked),17.2%
16,Cc1cc2nc(-c3ccc(SCc4ccc(C#N)cc4)nc3)[nH]c2cc1C,1.91%
17,CC(C)(C)n1ncc2c(=O)n(Cc3ccc(Cl)cc3Cl)cnc21,12.5%
18,CC(OC(=O)Cc1n[nH]c(=O)c2ccccc12)C(=O)Nc1cc(Cl)cc(Cl)c1 (centres unmarked),-12.4%
19,O=C(Nc1ccccc1Cl)C1CCCN1C(=O)OCc1ccccc1 (centres unmarked),23.1%
20,Cc1ccc(C)c(CNc2ccc(S(=O)(=O)N3CCCCC3)cc2)c1,12.1%
21,CC(C)(C)C(=O)c1cnc(Nc2ccccc2Cl)s1,13.1%
22,COc1ccc(-n2c(COc3cccc4ccccc34)nnc2SC(C)C(=O)O)cc1 (centres unmarked),9.31%

# Source: publication PMC4336329 (PLoS ONE, 2015)
